# Reference: PubChem BioAssay (NCATS)
# The shares of active, inactive and inconclusive entries below differ from those in the screen. A potency beside an inconclusive call is a rough fit, not a confirmed value. The source made the active and inactive calls. Calls follow the shape of the dose curve; as a rule, active = well fitted cell-killing curve with a large enough effect; inconclusive = small, poorly fitted or top-dose-only effect, or effect the other way; inactive = flat fitted curve, though single readings scatter.
# System: C33A
# Experiment: Primary qHTS to identify gynecologic anti-cancer compounds using libraries of approved drugs and bioactive compounds (AID 1345084); also: nearly all actives have a fitted effect of over 55% in size
# Conditions: Gynecologic cancer cell panel viability, ATPlite luminescence, 48 h; series mostly up to 57.5 µM
# Summary of the method: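 Measured: luminescence after ATPlite addition (15 min, RT). Exposure: 48 h, 37 C, 5% CO2.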
# Potency is read from the fitted curve at half-maximal effect; tags tell the direction and shape of the fitted curve.
row,SMILES,Potency
1,COc1cccc(-c2cc(F)ccc2C2Cc3nc(N)nc(C)c3C(=O)N2)n1 (centres undefined),"inconclusive: 0.282 µM [cytotoxic, full curve]"
2,CN1CCN(c2ccc(OC(F)(F)F)c(Nc3ncc4c(n3)-c3c(c(C(N)=O)nn3CCO)CC4)c2)CC1,"inconclusive: 0.199 µM [cytotoxic, full curve]"
3,CCNC(=O)c1noc(-c2cc(Cl)c(O)cc2O)c1-c1ccc(OC)cc1,active: 1.12 µM
4,O=C(Nc1ccc(Cl)cc1F)c1ccccc1O,active: 14.1 µM
5,CN1CCN(Cc2ccc(NC(=O)Cc3ccc(Oc4cc(NC(=O)C5CC5)ncn4)cc3)cc2C(F)(F)F)CC1,"inconclusive: 7.08 µM [cytotoxic, full curve, poor fit]"
6,CCN(CC)CCN(Cc1ccc(-c2ccc(C(F)(F)F)cc2)cc1)C(=O)Cn1c(SCc2ccc(F)cc2)nc(=O)c2c1CCC2,"inconclusive: 39.8 µM [cytotoxic, single point]"
7,COc1cc([C@H]2O[C@H](c3cc(OC)c4c(c3)OCO4)[C@H](C)[C@H]2C)cc(OC)c1OC,"inconclusive: 7.08 µM [cytotoxic, partial curve, poor fit]"
8,CC(C)CCNC(=O)c1ccc2c(c1)nc(Nc1n[nH]c3ccc(-c4ccccc4OC(F)(F)F)cc13)n2C1CCC(O)CC1 (centres undefined),"inconclusive: 39.8 µM [cytotoxic, single point]"
9,COc1cc(C[C@H]2C(=O)OC[C@@H]2Cc2ccc(OC)c(OC)c2)ccc1O,"inconclusive: 3.55 µM [cytotoxic, partial curve, poor fit]"
10,N#CC(CCCN1CCC(O)(c2ccc(Cl)cc2)CC1)(c1ccccc1)c1ccccc1,"inconclusive: 39.8 µM [cytotoxic, single point]"
11,C=C1C(=O)OC2C(OC(=O)C=C(C)C)C(C)=C3C(=O)C=C(C)C3C(O)C12 (centres undefined),"inconclusive: 25.1 µM [cytotoxic, single point]"
12,CC1(C)C2CC(OC3OC(COC4OCC(O)(CO)C4O)C(O)C(O)C3O)C1(C)CC2O (centres undefined),"inconclusive: 3.55 µM [cytotoxic, single point]"
13,CCN1CCN(Cc2ccc(NC(=O)c3ccc(C)c(Oc4ccnc5[nH]ccc45)c3)cc2C(F)(F)F)CC1,"inconclusive: 12.6 µM [cytotoxic, single point]"
14,CC(=O)C1=C(O)C2c3c[nH]c4cccc(c34)CC2C(C)(C)N(C)C1=O (centres undefined),"inconclusive: 11.2 µM [rising, partial curve]"
15,CCOC(=O)c1cccc(CNc2ccc(N(C)C(=O)Nc3ccccc3)cc2)c1,"inconclusive: 2.82 µM [cytotoxic, partial curve, poor fit]"
16,Cc1noc(C)c1-c1cc(O)cc(C(O)c2ccccc2)c1 (centres undefined),inactive
17,CC(C)(C)Nc1nc(Nc2ccc(C(N)=O)cc2)cc(N)c1C#N,active: 25.1 µM
18,C#CCN(Cc1cc2c(=O)[nH]c(C)nc2cc1Br)c1ccc(C(=O)NCc2cccnc2)cc1,inconclusive: 1 µM
19,COc1cc(-c2cc(-c3cccc(O)c3)cnc2N)cc(OC)c1OC,inactive
